Data reported in the supplement of paper PMC11417369.
The list shows a part of the results.

The sequences below were run on PfHDP1 homeodomain (GST-tagged) (assay: gcPBM binding intensity (ln(normalized median fluorescence intensity)); higher = stronger DNA binding).
Procedure, shortened: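 In this array assay, P. falciparum DNA-binding domains with a GST tag, expressed in E. coli, were applied for 1 h to primer-extended double-stranded 36-bp intergenic genomic probes and negative controls on an Agilent 4 × 180k array. Bound protein was visualised with Alexa488 anti-GST antibody at 488 nm. Binding intensity is the highest Masliner-normalised natural-log median intensity across replicate spots of either probe orientation.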

Sequence	gcPBM binding intensity (ln)
AGAACCATATATAAATGTACATGTTAATATGAATAA [XGTACX_site130]	6.54
GGACAAAAAAAAAAAATAAAATAAAAATAAATAAAT [XGTACX_negctrl_site106]	5.93
TATAATTATATTTGGAGTACAAATTTTTTTTTTTTT [XGTACX_site7494]	6.35
AAAAAAAAAGGTAACGCATGCTTTTAGATTATATTA [TGCATGCA_site398]	5.93
AAGTATGCTTGCTACTTATTAAGTGGCAATATAATT [XGTACX_negctrl_site74]	6.19
TGTTAATAAAGGTGTACACAAAATAAAAAAAATTAT [CACACA_site4288]	7.2
TTTGTATAGTTGTAGGTGCATATCATTTTTAAATGT [GTGCAC_site9708]	9.34
AATAAAAAAATAGAAACACACATTAAAAAAAATAAA [CACACA_site1333]	6.66
ATGATATATAGACACACACACATATTTATATACATT [CACACA_site6404]	6.78
CTTTTTAATAAATATACACACACAAAAAAAAAAAAA [CACACA_site9316]	6.54
TATTCAAAGAAAGACAGTACGTGTAGCAAACAACCT [XGTACX_site4218]	6.66
ACTTACTAATTAATGGGTACATACACACATATATAC [XGTACX_site1362]	6.84
CACTTTATACGTAATTGTACTTTTTCTTTTTTTTAT [XGTACX_site3175]	6.58
TAAATAAAGTATAATGCATGCTATTATAATATTAAT [TGCATGCA_site825]	6.51
ATAACAAAATAAAACACACACACAAATGTACATATA [CACACA_site2425]	7.17
CATATACACCAACACACACACACACCCACAAAAAAA [CACACA_site496]	7.48
AAATAAATAATTTAATGTACATATATAATATATATA [XGTACX_site1831]	6.81
TATTTTTCCATATGCACACACACCGTATATATAATA [CACACA_site1127]	10.1
AAAAAGAATGTGAACACACACATTGAATCTAATTTA [CACACA_site6711]	6.02
TATTAAACGAAACACACACACACACCCATATATAAA [CACACA_site759]	7.04
GATAATTATGGACACACACACACACCCACAACTAAA [CACACA_site8824]	6.84
ACATATAATATATATATATATATATATATATATAAT [GTGCAC_negctrl_site648]	7.26

Sequence	gcPBM binding intensity (ln)
TATATAAAAAATTCAATACACACCATATATAAATAT [CACACA_site3987]	6.64
AGATGATATATTATATATCCTTTTAATAAATGTAAT [CACACA_negctrl_site730]	6.07
CTATTTATTATATATACATGCATATATATATTAATA [TGCATGCA_site527]	6.35
TATTCATATTTAAAGGTGCAATATTTATTTTGTACA	9.16
TATTCTAATTTTTAAACACACAAATATAAATAAGTA [CACACA_site3149]	6.35
TAAAAATGTGTATGTACACACTTTATTTTTAATACA [CACACA_site7235]	6.23
TATAATTATTTTTTTCTAAATATTATAAGGTATTCA [GTGCAC_negctrl_site205]	5.78
ATTTTTTTTTTTTTTTTTTTTTTTTAGATTAAGAAA [CACACA_negctrl_site1272]	5.81
AAATAAAATAAAATAAAATAAAATTCTTTGATACCT [TGCATGCA_negctrl_site604]	6.15
TAATAGAATATGATGGTGCAGCAGTCTTATTTTTCA	7.17
TTTCTTTCTTCACATATATATATATATATATTTATA [TGCATGCA_negctrl_site341]	7.33
TACATATAATATATTGCACACGTCAGAATAATATAG [CACACA_site1744]	10.3
CCCCCCCACGGACACACACACATACATACCACATAT [CACACA_site5303]	8.24
TTTTATAATATTTAAAGTACATTCTAAAAATATAAT [XGTACX_site8033]	6.01
TTAGCCATTAATTCTCTACACACCTTTATGTTATTT [CACACA_site9212]	6.66
ATAACCACATAAAATATAATTATATATATATATATA [CACACA_negctrl_site603]	9.04
TGGCACTAAAAAAATAAACACACAGATTTATATAAT [CACACA_site8386]	6.51
CCTGAAATTTTATTATGTACATATTATAAAATGATT [XGTACX_site1434]	6.75
ATTCCTCCCATGGAATGTACTCATCAAATAAATAAA [XGTACX_site6543]	6.08
TACACCATGATACATACACACAGACATATACTCATT [CACACA_site4708]	6.94
TCCAAATGTTTGCGTTGTACTCTTTTTTTAAAACTA [XGTACX_site5148]	6.86
TAATTAAAATTAAGAAGTACATTTTACTTTTAATGC [XGTACX_site5120]	6.16
